{
  "source": "a compilation of properties of binary mixtures (doi:10.1016/j.molliq.2012.02.014)",
  "assay": "xn = mol fraction of the nth substance listed",
  "conditions": "101 kPa",
  "note": "Some of these densities may be calculated back from excess volumes.",
  "data": [
    {"smiles": "CN(CCO)CCO", "note": "+ CCCCCC[n+]1ccn(C)c1.O=S(=O)([N-]S(=O)(=O)C(F)(F)F)C(F)(F)F", "values": [
      {"measurement": "mass density", "setting": "308.15 K, x1 = 1", "result": 1029.5, "unit": "kg/m3"},
      {"measurement": "mass density", "setting": "323.15 K, x1 = 1", "result": 1018, "unit": "kg/m3"}
    ]},
    {"smiles": "CCCCCC[n+]1ccn(C)c1.O=S(=O)([N-]S(=O)(=O)C(F)(F)F)C(F)(F)F", "note": "+ CN(CCO)CCO", "values": [
      {"measurement": "mass density", "setting": "303.15 K, x2 = 0.0989", "result": 1351.6, "unit": "kg/m3"},
      {"measurement": "mass density", "setting": "303.15 K, x2 = 0.1899", "result": 1336.7, "unit": "kg/m3"},
      {"measurement": "mass density", "setting": "303.15 K, x2 = 0.2977", "result": 1317.2, "unit": "kg/m3"},
      {"measurement": "mass density", "setting": "303.15 K, x2 = 0.3999", "result": 1298, "unit": "kg/m3"},
      {"measurement": "mass density", "setting": "303.15 K, x2 = 0.4988", "result": 1275.6, "unit": "kg/m3"},
      {"measurement": "mass density", "setting": "303.15 K, x2 = 0.6075", "result": 1245.3, "unit": "kg/m3"},
      {"measurement": "mass density", "setting": "303.15 K, x2 = 0.7049", "result": 1211.4, "unit": "kg/m3"},
      {"measurement": "mass density", "setting": "303.15 K, x2 = 0.899", "result": 1112.7, "unit": "kg/m3"},
      {"measurement": "mass density", "setting": "308.15 K, x2 = 0", "result": 1360, "unit": "kg/m3"},
      {"measurement": "mass density", "setting": "308.15 K, x2 = 0.1899", "result": 1332.1, "unit": "kg/m3"},
      {"measurement": "mass density", "setting": "308.15 K, x2 = 0.2977", "result": 1312.6, "unit": "kg/m3"},
      {"measurement": "mass density", "setting": "308.15 K, x2 = 0.4988", "result": 1271.1, "unit": "kg/m3"},
      {"measurement": "mass density", "setting": "308.15 K, x2 = 0.6075", "result": 1240.8, "unit": "kg/m3"},
      {"measurement": "mass density", "setting": "308.15 K, x2 = 0.7049", "result": 1207, "unit": "kg/m3"},
      {"measurement": "mass density", "setting": "308.15 K, x2 = 0.801", "result": 1164.9, "unit": "kg/m3"},
      {"measurement": "mass density", "setting": "308.15 K, x2 = 0.899", "result": 1108.7, "unit": "kg/m3"},
      {"measurement": "mass density", "setting": "313.15 K, x2 = 0", "result": 1355.4, "unit": "kg/m3"},
      {"measurement": "mass density", "setting": "313.15 K, x2 = 0.0989", "result": 1342.4, "unit": "kg/m3"},
      {"measurement": "mass density", "setting": "313.15 K, x2 = 0.1899", "result": 1327.5, "unit": "kg/m3"},
      {"measurement": "mass density", "setting": "313.15 K, x2 = 0.2977", "result": 1308, "unit": "kg/m3"},
      {"measurement": "mass density", "setting": "313.15 K, x2 = 0.4988", "result": 1266.5, "unit": "kg/m3"},
      {"measurement": "mass density", "setting": "313.15 K, x2 = 0.7049", "result": 1202.6, "unit": "kg/m3"},
      {"measurement": "mass density", "setting": "313.15 K, x2 = 0.801", "result": 1160.6, "unit": "kg/m3"},
      {"measurement": "mass density", "setting": "318.15 K, x2 = 0", "result": 1350.9, "unit": "kg/m3"},
      {"measurement": "mass density", "setting": "318.15 K, x2 = 0.0989", "result": 1337.9, "unit": "kg/m3"},
      {"measurement": "mass density", "setting": "318.15 K, x2 = 0.1899", "result": 1322.9, "unit": "kg/m3"},
      {"measurement": "mass density", "setting": "318.15 K, x2 = 0.2977", "result": 1303.5, "unit": "kg/m3"},
      {"measurement": "mass density", "setting": "318.15 K, x2 = 0.3999", "result": 1284.3, "unit": "kg/m3"},
      {"measurement": "mass density", "setting": "318.15 K, x2 = 0.4988", "result": 1262, "unit": "kg/m3"},
      {"measurement": "mass density", "setting": "318.15 K, x2 = 0.6075", "result": 1231.9, "unit": "kg/m3"},
      {"measurement": "mass density", "setting": "318.15 K, x2 = 0.801", "result": 1156.3, "unit": "kg/m3"},
      {"measurement": "mass density", "setting": "318.15 K, x2 = 0.899", "result": 1100.5, "unit": "kg/m3"},
      {"measurement": "mass density", "setting": "323.15 K, x2 = 0", "result": 1346.3, "unit": "kg/m3"},
      {"measurement": "mass density", "setting": "323.15 K, x2 = 0.0989", "result": 1333.3, "unit": "kg/m3"},
      {"measurement": "mass density", "setting": "323.15 K, x2 = 0.1899", "result": 1318.3, "unit": "kg/m3"},
      {"measurement": "mass density", "setting": "323.15 K, x2 = 0.3999", "result": 1279.6, "unit": "kg/m3"},
      {"measurement": "mass density", "setting": "323.15 K, x2 = 0.4988", "result": 1257.4, "unit": "kg/m3"},
      {"measurement": "mass density", "setting": "323.15 K, x2 = 0.6075", "result": 1227.3, "unit": "kg/m3"},
      {"measurement": "mass density", "setting": "323.15 K, x2 = 0.801", "result": 1152, "unit": "kg/m3"},
      {"measurement": "mass density", "setting": "323.15 K, x2 = 0.899", "result": 1096.4, "unit": "kg/m3"}
    ]}
  ]
}
